The values below come from the antibiotic and cytotoxicity screens of Wong et al. (2023).

The structures appear in SMILES notation. This is one part of the list.

Assay [1] has as its system HSkMC (human skeletal muscle cells). Kind of assay: cytotoxicity call (relative viability < 0.9). The note with it: 10 µM.
Assay [2] relates to HepG2. Kind of assay: cytotoxicity call (relative viability < 0.9). To be noted: 10 µM.
Assay [3] relates to S. aureus RN4220. Put plainly: growth inhibition call (relative growth <= 0.2). The note with it: 50 µM.

With `COc1cccc(C#Cc2ccc3c(c2)O[C@@H](CN(C)C(C)=O)[C@H](C)CN([C@H](C)CO)S3(=O)=O)c1`, the cytotoxicity call in assay [1] and in assay [2] was “inactive” each time. In addition, the growth inhibition call in assay [3] is “inactive”.

Consider `C[C@H]1CN([C@@H](C)CO)C(=O)Cc2cc(NC(=O)Nc3cccc4ccccc34)ccc2O[C@H]1CN(C)Cc1ccc(C(=O)Nc2ccccc2N)cc1`, for which the cytotoxicity call in assay [1] and in assay [2] was “inactive” throughout. Moreover, the growth inhibition call in assay [3] was “inactive”.

For the compound `Cc1ccc(S(=O)(=O)Nc2ccc3c(c2)C(=O)N([C@H](C)CO)C[C@H](C)[C@@H](CN(C)C(=O)c2ccccc2)OCCCC[C@H](C)O3)cc1`, the cytotoxicity call in assay [1] and in assay [2] was “inactive” each time. Further, the growth inhibition call in assay [3] was “inactive”.

`O=C(C[C@H]1C[C@@H]2c3cc(NC(=O)Cc4ccncc4)ccc3O[C@@H]2[C@H](CO)O1)NCCN1CCCCC1`: the cytotoxicity call in assay [1] and in assay [2] was “inactive” throughout. The growth inhibition call in assay [3] is “inactive”.

Take `Cn1cnc(CCNC(=O)C[C@@H]2CC[C@@H]3[C@H](COC[C@H](O)CN3C(=O)Nc3ccc(C(F)(F)F)cc3)O2)c1`: the cytotoxicity call in assay [1] and in assay [2] was “inactive” throughout. In assay [3], the growth inhibition call was “active”.

Consider `C[C@H](CO)N1C[C@H](C)[C@H](CN(C)S(=O)(=O)c2cccs2)OCCCC[C@H](C)Oc2ccc(NC(=O)Nc3ccc4c(c3)OCO4)cc2C1=O`, for which the cytotoxicity call in assay [1] and in assay [2] was “inactive” in each case. Moreover, the growth inhibition call in assay [3] was “inactive”.

As to `C[C@H](CO)N1C[C@H](C)[C@H](CN(C)Cc2ccc(Cl)c(Cl)c2)Oc2ccc(NC(=O)C3CCCCC3)cc2C1=O`, the cytotoxicity call in assay [1] and in assay [2] was “inactive” in each case. For the same compound, the growth inhibition call in assay [3] is “inactive”.

`Cc1ccc(S[C@]2(C(=O)O)CC(=O)N(Cc3cc(C(F)(F)F)cc(C(F)(F)F)c3)[C@@H]2c2ccc(CO)cc2)cc1`: the cytotoxicity call in assay [1] and in assay [2] was “inactive” in each case. In assay [3], the growth inhibition call was “inactive”.

For `C[C@@H]1CN([C@H](C)CO)C(=O)c2cc(NC(=O)Nc3ccc(F)cc3)ccc2O[C@@H]1CN(C)Cc1ccc(-c2ccccc2)cc1`, the cytotoxicity call in assay [1] and in assay [2] was “active” in each case. Moreover, the growth inhibition call in assay [3] was “inactive”.

As to `C[C@@H]1CN([C@@H](C)CO)C(=O)c2cc(NC(=O)CCC(F)(F)F)ccc2O[C@H]1CN(C)Cc1ccc(-c2ccccc2)cc1`, the cytotoxicity call in assay [1] is “inactive”. Also, the cytotoxicity call in assay [2] is “active”. Moreover, the growth inhibition call in assay [3] is “inactive”.

On to `CC(=O)N(C)C[C@@H]1Oc2cc(C#CCN(C)C)ccc2S(=O)(=O)N([C@H](C)CO)C[C@H]1C`, for which the cytotoxicity call in assay [1] and in assay [2] was “inactive” throughout. Moreover, in assay [3], the growth inhibition call was “inactive”.

`Cn1nc(CN2CCCC2=O)c2c1CN(C(=O)CO)C2`: the cytotoxicity call in assay [1] and in assay [2] was “inactive” in each case. Moreover, the growth inhibition call in assay [3] is “inactive”.

On to `CC(=O)NCCCC[C@@H]1NC(=O)[C@@H]2C[C@H](C(=O)NCCCCCN)[C@H](c3ccc(O)cc3)N2C1=O`, for which the cytotoxicity call in assay [1] and in assay [2] was “inactive” each time. In addition, in assay [3], the growth inhibition call is “inactive”.

With `CC(=O)N[C@H]1[C@H]([C@H](O)[C@H](O)CO)O[C@](O)(C(=O)O)C[C@@H]1O`, the cytotoxicity call in assay [1] and in assay [2] was “inactive” in each case. For the same compound, the growth inhibition call in assay [3] was “inactive”.

Regarding `C[C@H]1CN([C@@H](C)CO)C(=O)c2cccc(NS(=O)(=O)c3ccc(Cl)cc3)c2O[C@@H]1CN(C)S(=O)(=O)c1cn(C)cn1`, the cytotoxicity call in assay [1] and in assay [2] was “inactive” in each case. Moreover, the growth inhibition call in assay [3] is “inactive”.

Take `C[C@@H]1CCCCO[C@H](CN(C)C(=O)CCC(F)(F)F)[C@@H](C)CN([C@H](C)CO)C(=O)c2cc(NC(=O)Cc3ccccc3)ccc2O1`: the cytotoxicity call in assay [1] and in assay [2] was “inactive” each time. The growth inhibition call in assay [3] was “inactive”.

Regarding `COc1ccc(CN(C)C[C@H]2Oc3ccc(NC(=O)CCN4CCOCC4)cc3C(=O)N([C@@H](C)CO)C[C@@H]2C)cc1`, the cytotoxicity call in assay [1] and in assay [2] was “inactive” throughout. Also, the growth inhibition call in assay [3] is “inactive”.

For `C[C@H]1CN([C@@H](C)CO)C(=O)Cc2cc(NC(=O)CCC(F)(F)F)ccc2O[C@@H]1CN(C)S(=O)(=O)c1ccccc1`, the cytotoxicity call in assay [1] and in assay [2] was “inactive” in each case. In addition, the growth inhibition call in assay [3] is “inactive”.

`COc1ccc(C#Cc2ccc3c(c2)[C@]2(C(=O)N3)[C@H](c3ccc(OCCO)cc3)N3[C@H](c4ccccc4)[C@H](c4ccccc4)OC(=O)[C@H]3[C@@H]2C(=O)NC[C@H](O)c2ccccc2)cc1`: the cytotoxicity call in assay [1] and in assay [2] was “inactive” in each case. In addition, the growth inhibition call in assay [3] is “inactive”.

On to `O=C(NCCCN1CCOCC1)[C@H]1[C@H](CO)[C@H]2Cn3c(cccc3=O)[C@@H]1N2C(=O)C1CCCCC1`, for which the cytotoxicity call in assay [1] and in assay [2] was “inactive” each time. Further, the growth inhibition call in assay [3] is “inactive”.

For `C[C@@H]1CCCCO[C@@H](CN(C)C(=O)NC2CCCCC2)[C@@H](C)CN([C@H](C)CO)C(=O)c2cc(NC(=O)Nc3ccc4c(c3)OCO4)ccc2O1`, the cytotoxicity call in assay [1] and in assay [2] was “inactive” in each case. Also, the growth inhibition call in assay [3] is “inactive”.

Take `C[C@@H]1CN([C@H](C)CO)C(=O)c2cc(NC(=O)C3CCCCC3)ccc2O[C@@H](C)CCCCO[C@H]1CN(C)C(=O)Nc1ccccc1`: the cytotoxicity call in assay [1] and in assay [2] was “inactive” each time. Also, in assay [3], the growth inhibition call was “inactive”.

Turning to `CN1CCN(C(c2ccccc2)c2ccccc2)CC1`, the cytotoxicity call in assay [1] and in assay [2] was “inactive” throughout. Besides, the growth inhibition call in assay [3] was “inactive”.

Take `COc1ccc(S(=O)(=O)Nc2ccc3c(c2)CC(=O)N([C@@H](C)CO)C[C@H](C)[C@H](CN(C)S(=O)(=O)c2ccccc2)O3)cc1`: the cytotoxicity call in assay [1] and in assay [2] was “inactive” throughout. Besides, in assay [3], the growth inhibition call is “inactive”.

Consider `C[C@H](CO)N1C[C@H](C)[C@@H](CN(C)Cc2ccc(C(F)(F)F)cc2)Oc2c(NC(=O)CCCCCC(=O)Nc3ccccc3N)cccc2C1=O`, for which the cytotoxicity call in assay [1] and in assay [2] was “inactive” throughout. Moreover, the growth inhibition call in assay [3] is “inactive”.

Turning to `C[C@H](CO)N1C[C@H](C)[C@H](CN(C)Cc2ccc(Cl)c(Cl)c2)OCCCC[C@H](C)Oc2ccc(NS(=O)(=O)c3ccc(F)cc3)cc2C1=O`, the cytotoxicity call in assay [1] is “active”. Also, the cytotoxicity call in assay [2] was “inactive”. In assay [3], the growth inhibition call was “inactive”.

Regarding `Cc1ccc(S(=O)(=O)N(C)C[C@@H]2OCCCC[C@@H](C)Oc3ccc(NC(=O)Nc4c(C)noc4C)cc3C(=O)N([C@H](C)CO)C[C@H]2C)cc1`, the cytotoxicity call in assay [1] and in assay [2] was “inactive” throughout. In addition, the growth inhibition call in assay [3] was “inactive”.
